IC50 is the fitted dose that halves viability relative to control wells, and lower means more sensitive; where the fit passes the top or lowest dose, that dose stands as a limit. AUC sums up the same curve from the lowest dose to the 256-fold higher top dose: 1 means no effect, lower means more sensitive. For some assays here: A top dose marked as inferred is not printed in the source and was worked back from the curve model. For some assays here: An entry number marks a drug with two screens in the source, which often give different values.
Assays:
Experiment in all cases: Viability of human cancer cell lines after 72 h of drug (GDSC screen)
[1] = compound: C[C@@H](N)c1ccc(C(=O)Nc2ccnc3[nH]ccc23)cc1 [Y-39983]; settings: top dose 20 µM; top dose inferred
Protocol: (§1)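 Human cancer cell lines in 384-well plates, medium with 10% serum, drug for 72 h over a 256-fold dose range (nine 2-fold or five 4-fold steps up to the top dose). Adherent lines were fixed and stained with the nucleic acid dye Syto60, suspension lines read with resazurin; signal relative to control wells, capped at 0 and 100%. One two-parameter sigmoid per drug and line, fitted in a mixed model over all curves with the slope shared within a line.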

[2] = compound: CCCS(=O)(=O)Nc1ccc(F)c(C(=O)c2c[nH]c3ncc(Cl)cc23)c1F [PLX4720]; settings: top dose 10 µM
Protocol: as §1

[3] = compound: CC(C)CC(=O)Nc1n[nH]c2c1CN(C(=O)C1CCN(C)CC1)C2(C)C [PHA-793887]; settings: top dose 10.24 µM
Protocol: as §1

[4] = compound: C/C(=C\c1csc(C)n1)[C@@H]1C[C@@H]2O[C@]2(C)CCC[C@H](C)[C@H](O)[C@@H](C)C(=O)C(C)(C)[C@@H](O)CC(=O)O1 [Epothilone B]; settings: top dose 0.032 µM; top dose inferred
Protocol: as §1

[5] = compound: NC(=O)Nc1sc(-c2ccc(F)cc2)cc1C(N)=O [TPCA-1]; settings: top dose 20 µM
Protocol: as §1

[6] = screen: GDSC drug entry 1371, top dose inferred

Cell Line	AUC [1]	IC50 [1] [µM]	AUC ([2]; screen: GDSC drug entry 1036)	IC50 ([2]; screen: GDSC drug entry 1036) [µM]	AUC [2, 6]	IC50 [2, 6] [µM]	AUC [3]	IC50 [3] [µM]	AUC [4]	IC50 [4] [µM]	AUC [5]	IC50 [5] [µM]
EBC-1 (lung squamous cell carcinoma, adherent)	0.972	> 20	0.908	> 10	0.803	5.73	0.872	> 10.2	0.543	0.00266	0.955	> 20
ECC10 (stomach, suspension)	0.942	> 20	0.89	> 10	0.947	> 10	0.765	3.91	0.64	0.00498	0.839	14.6
EFM-19 (breast, adherent)	0.915	> 20			0.974	> 10	0.962	> 10.2	0.652	0.00657	0.808	17.7
EFM-192A (breast, adherent)	0.981	> 20	0.974	> 10	0.983	> 10	0.984	> 10.2	0.566	0.00309	0.939	> 20
EFO-21 (ovary, adherent)	0.979	> 20	0.98	> 10	0.977	> 10	0.905	> 10.2	0.694	0.009	0.811	17
EFO-27 (ovary, adherent)	0.888	> 20	0.957	> 10	0.944	> 10	0.824	8.21	0.479	0.00173	0.83	17.2
EGI-1 (biliary tract, adherent)	0.978	> 20	0.876	> 10	0.977	> 10	0.901	> 10.2	0.834	0.0302	0.86	> 20
EN (endometrium, adherent)	0.91	> 20	0.961	> 10	0.982	> 10	0.821	8.11	0.76	0.0142	0.891	> 20
EPLC-272H (lung squamous cell carcinoma, adherent)	0.868	> 20			0.975	> 10	0.493	0.611	0.439	0.00134	0.776	9
ESS-1 (endometrium, adherent)	0.981	> 20	0.99	> 10	0.989	> 10	0.943	> 10.2	0.481	0.00179	0.986	> 20
EW-7 (Ewing sarcoma, semi-adherent)	0.708	4.44	0.953	> 10	0.98	> 10	0.687	1.99	0.416	0.00121	0.55	1.68
FADU (head and neck, adherent)	0.982	> 20	0.981	> 10	0.984	> 10	0.934	> 10.2	0.798	0.0146	0.923	> 20
FTC-133 (thyroid, adherent)	0.975	> 20	0.968	> 10	0.851	8.88	0.984	> 10.2	0.825	0.0219	0.986	> 20
FU97 (stomach, adherent)	0.976	> 20	0.957	> 10	0.973	> 10	0.899	> 10.2	0.956	> 0.032	0.89	> 20
FU-OV-1 (ovary, adherent)	0.958	> 20	0.982	> 10	0.924	> 10	0.854	> 10.2	0.888	> 0.032	0.857	> 20
G-292 Clone A141B1 (osteosarcoma, adherent)	0.926	> 20	0.956	> 10	0.935	> 10	0.92	> 10.2	0.93	> 0.032	0.921	> 20
G-361 (melanoma, adherent)	0.983	> 20	0.749	3.13	0.775	3.8	0.98	> 10.2	0.42	0.00122	0.832	12
G-401 (kidney, adherent)	0.929	> 20	0.984	> 10	0.937	> 10	0.825	6.98	0.494	0.00192	0.79	9.85
